The source of these data is article PMC3927877 (Nature Communications, 2013).

The series concerns the molecule itself. Put plainly: SEC-MALS.

B1: STIM1 CC1_([TM-distal])-CC2-CC3 ([…]) (domain or fragment)
chain: not shown
As for B1, the binding result is listed as “binds”.
